{"source": "the supplement of paper PMC11060735", "note": "Values joined by “and” are separate entries in the source; they are usually repeats but may differ in a detail not shown here. Equal entries are not always repeated. The campaign covered roughly 1,800 compounds. About 50 (3%) showed activity. This is one part of the list.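 Note: fibroblasts sorted 14 days after bleomycin, GFP+ and GFP− mixed 1:1 in 384-well plates (GFP− as in-well control), imaged after Hoechst and NucView530 staining, reference wells lacked compound.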", "data": [{"system": "mouse p16Ink4a+/- lung fibroblasts (INKBRITE, bleomycin-injured)", "test": "percentage of GFP+ (p16Ink4a+) fibroblasts among all cells in well; higher = less depletion of p16Ink4a+ cells, active = 20 or less", "settings": "1 µM; 3 days", "values": [{"smiles": "CN1[C@@H]2CC[C@H]1C[C@@H](OC(c1ccccc1)c1ccccc1)C2", "note": "[Benzatropine]", "percentage of GFP+": "inactive: 51.1%"}, {"smiles": "CC(S)C(=O)NCC(=O)O", "note": "(centres undefined) [Tiopronin]", "percentage of GFP+": "inactive: 42.1%"}, {"smiles": "CCc1c(Cl)c(O)c(Cl)c(O)c1C(=O)O[C@H]1[C@H](O)[C@H](OC)[C@H](OC/C2=C\\C=C\\C[C@H](O)/C(C)=C\\[C@H](CC)[C@@H](O[C@@H]3OC(C)(C)[C@@H](OC(=O)C(C)C)[C@H](O)[C@@H]3O)/C(C)=C\\C(C)=C/C[C@@H]([C@@H](C)O)OC2=O)O[C@@H]1C", "note": "[Fidaxomicin]", "percentage of GFP+": "inactive: 50.9%"}, {"smiles": "Cc1ccc(Sc2ccccc2N2CCNCC2)c(C)c1", "note": "[Vortioxetine HBr]", "percentage of GFP+": "inactive: 48.5%"}, {"smiles": "COc1cc2nccc(Oc3ccc(NC(=O)Nc4cc(C)on4)c(Cl)c3)c2cc1OC", "note": "[Tivozanib]", "percentage of GFP+": "inactive: 28.8%"}, {"smiles": "C[N+](C)(C)CCO", "note": "[Choline]", "percentage of GFP+": "inactive: 39.1%"}, {"smiles": "Cc1cc(N2CCOCC2)ccc1Nc1nc(NC2CCCCC2)c2[nH]cnc2n1", "percentage of GFP+": "inactive: 33.6%"}, {"smiles": "C=CCn1c(=O)c2cnc(Nc3ccc(N4CCN(C)CC4)cc3)nc2n1-c1cccc(C(C)(C)O)n1", "percentage of GFP+": "inactive: 41.6%"}, {"smiles": "CCCNS(=O)(=O)Nc1ncnc(OCCOc2ncc(Br)cn2)c1-c1ccc(Br)cc1", "note": "[Macitentan]", "percentage of GFP+": "inactive: 46.3%"}, {"smiles": "Cc1ccc(-c2cc(C(F)(F)F)nn2-c2ccc(S(N)(=O)=O)cc2)cc1", "note": "[Celecoxib]", "percentage of GFP+": "inactive: 38.4%"}, {"smiles": "Clc1ccc(CCC(Cn2ccnc2)Sc2c(Cl)cccc2Cl)cc1", "note": "(centres undefined) [Butoconazole]", "percentage of GFP+": "inactive: 39.6%"}, {"smiles": "CS(=O)(=O)N1CCN(Cc2cc3nc(-c4cccc5[nH]ncc45)nc(N4CCOCC4)c3s2)CC1", "percentage of GFP+": "inactive: 36.8%"}, {"smiles": "O=C(O)c1ccccc1Nc1cccc(C(F)(F)F)c1", "note": "[Flufenamic Acid]", "percentage of GFP+": "inactive: 46.4%"}, {"smiles": "CN(C)N=Nc1[nH]cnc1C(N)=O", "note": "[Dacarbazine]", "percentage of GFP+": "inactive: 45%"}, {"smiles": "Nc1nc2ccc(OC(F)(F)F)cc2s1", "note": "[Riluzole]", "percentage of GFP+": "inactive: 43.2%"}, {"smiles": "CC(O)C1C(=O)N2C(C(=O)O)=C(SC3CNC(C(=O)N(C)C)C3)C(C)C12", "note": "(centres undefined) [Meropenem]", "percentage of GFP+": "inactive: 34.6%"}, {"smiles": "OC[C@H]1O[C@H](O[C@]2(CCl)O[C@H](CCl)[C@@H](O)[C@@H]2O)[C@H](O)[C@@H](O)[C@H]1Cl", "note": "[Sucralose]", "percentage of GFP+": "inactive: 45.5%"}, {"smiles": "c1ccc(-c2nn3c(c2-c2ccnc4cc(OCCN5CCOCC5)ccc24)CCC3)nc1", "percentage of GFP+": "inactive: 50.5%"}, {"smiles": "COC(=O)[C@H](CCCN=C(N)N)NS(=O)(=O)c1ccc(C)cc1", "percentage of GFP+": "inactive: 38.8%"}, {"smiles": "C[C@H]1COC2=C1C(=O)C(=O)c1c2ccc2c1CCCC2(C)C", "note": "[Cryptotanshinone]", "percentage of GFP+": "inactive: 40%"}, {"smiles": "COc1cc(Nc2ncc(F)c(Nc3ccc4c(n3)NC(=O)C(C)(C)O4)n2)cc(OC)c1OC", "percentage of GFP+": "inactive: 37.2% and inactive: 37.5%"}, {"smiles": "CC(C)N(C[C@H]1O[C@@H](n2cnc3c(N)ncnc32)[C@H](O)[C@@H]1O)C1CC(CCc2nc3cc(C(C)(C)C)ccc3[nH]2)C1", "note": "(some centres undefined)", "percentage of GFP+": "inactive: 46.6%"}, {"smiles": "CCCSc1nc(N[C@@H]2C[C@H]2c2ccc(F)c(F)c2)c2nnn([C@@H]3C[C@H](OCCO)[C@@H](O)[C@H]3O)c2n1", "note": "[Ticagrelor]", "percentage of GFP+": "inactive: 30.8%"}, {"smiles": "CC(C)OC(=O)C(C(=O)OC(C)C)=C1SC=CS1", "note": "[Malotilate]", "percentage of GFP+": "inactive: 28.9%"}, {"smiles": "COc1ccc(-c2cc3c(C)nc(N)nc3n([C@H]3CC[C@H](OCCO)CC3)c2=O)cn1", "percentage of GFP+": "inactive: 41.3%"}, {"smiles": "NC(=O)c1cn(Cc2c(F)cccc2F)nn1", "note": "[Rufinamide]", "percentage of GFP+": "inactive: 36.1%"}, {"smiles": "COc1cc(C(=O)NS(=O)(=O)c2ccccc2C)ccc1Cc1cn(C)c2ccc(NC(=O)OC3CCCC3)cc12", "note": "[Zafirlukast]", "percentage of GFP+": "inactive: 47.1%"}, {"smiles": "COC(=O)[C@@H]1[C@H]2C[C@H]3c4[nH]c5ccccc5c4CCN3C[C@@H]2CC[C@@H]1O", "note": "[Yohimbine]", "percentage of GFP+": "inactive: 40%"}, {"smiles": "Cn1cc(C2=C(c3cn(CCCSC(=N)N)c4ccccc34)C(=O)NC2=O)c2ccccc21", "percentage of GFP+": "inactive: 58.4%"}, {"smiles": "CC(C)(C)c1cc(/C=C(\\C#N)C(N)=S)cc(C(C)(C)C)c1O", "note": "[Tyrphostin]", "percentage of GFP+": "inactive: 50.3%"}, {"smiles": "CC(/C=C/C(=O)NO)=C\\[C@@H](C)C(=O)c1ccc(N(C)C)cc1", "note": "[Trichostatin A]", "percentage of GFP+": "active: 10.8%"}, {"smiles": "Cc1cnc(-c2cc(N3CCN(C(=O)CCS(C)(=O)=O)CC3)ncc2Cl)c(C)c1", "percentage of GFP+": "inactive: 51.1%"}, {"smiles": "CC(=O)[C@H]1CC[C@H]2[C@@H]3C=CC4=CC(=O)CC[C@@]4(C)[C@@H]3CC[C@]12C", "note": "[Dydrogesterone]", "percentage of GFP+": "inactive: 49%"}, {"smiles": "CO[C@@H]1[C@@H](OC(N)=O)[C@@H](O)[C@H](Oc2ccc3c(O)c(NC(=O)c4ccc(O)c(CC=C(C)C)c4)c(=O)oc3c2C)OC1(C)C", "note": "[Novobiocin]", "percentage of GFP+": "inactive: 41.2%"}, {"smiles": "Nc1ncnc2c1c(-c1cccc(OCc3ccccc3)c1)cn2[C@H]1C[C@@H](CN2CCC2)C1", "percentage of GFP+": "inactive: 42.2%"}, {"smiles": "Clc1ccc(C2(c3ccc(-c4cn[nH]c4)cc3)CCNCC2)cc1", "percentage of GFP+": "inactive: 43.8%"}, {"smiles": "COc1ccccc1OCC(O)CO", "note": "(centres undefined) [Guaifenesin]", "percentage of GFP+": "inactive: 38.7%"}, {"smiles": "Nc1nc(CC(=O)Nc2ccc(CCNC[C@H](O)c3ccccc3)cc2)cs1", "note": "[Mirabegron]", "percentage of GFP+": "inactive: 51.4%"}, {"smiles": "Nc1ncnc2c1c(-c1cccc(OCc3ccccc3)c1)cn2[C@H]1C[C@H](CN2CCCC2)C1", "percentage of GFP+": "inactive: 43.3%"}, {"smiles": "CN(C)Cc1cccc(/N=C(\\c2ccccc2)c2c(O)[nH]c3cc(C(=O)N(C)C)ccc23)c1", "percentage of GFP+": "inactive: 40.2%"}, {"smiles": "Cc1cc(C)c(/C=C2\\C(=O)Nc3ccccc32)[nH]1", "note": "[Semaxanib]", "percentage of GFP+": "inactive: 55.4%"}, {"smiles": "Cc1cc(C(C)(C)C)c(O)c(C)c1CC1=NCCN1", "note": "[Oxymetazoline]", "percentage of GFP+": "inactive: 39.9%"}, {"smiles": "CC(C)N(CCCNC(=O)Nc1ccc(C(C)(C)C)cc1)C[C@H]1O[C@@H](n2ccc3c(N)ncnc32)[C@H](O)[C@@H]1O", "percentage of GFP+": "inactive: 48% and inactive: 54.1%"}, {"smiles": "CN(N=O)C(=O)N[C@@H]1[C@@H](O)[C@H](O)[C@@H](CO)O[C@@H]1O", "note": "[Streptozocin]", "percentage of GFP+": "inactive: 40.8%"}]}]}
